Source: the RNAGym collection of RNA variant scans (doi:10.7554/elife.90254)
Read counts are not given, so values of variants with three or more changes are uncertain.

B1: LINE1-mini (parent)
chain: GGCAGAGCUCAACACAGCGUGGCAAAGUGGCUGUGGCUAGACUGCC

Variants of: B1
Experiment: self-cleavage, relative activity (ratio to wild type); higher = more cleavage; in vitro, sequencing; the parent is a self-cleaving ribozyme

Row | Variant | self-cleavage
1 | C23U G30U U32G C45U | 0.05
2 | G22U G29A G44C | 0.16
3 | C23A C31A A41C | 0.02
4 | C23G G33U G40C | 0.01
5 | C23U G30A C45U | 0.51
6 | C23U G30A U32G G36U G40A C46A | 0.02
7 | C23G A39G C45G | 0.05
8 | G22C G33C C42G G44U | 0.02
9 | G22C G30U G35U A41C | 0.12
10 | C23U G30C C37U | 0.16
11 | G22C G30U C37A U43A | 0.06
12 | G22U A26U U34C | 0.32
13 | G22C U34C G36A | 0.06
14 | C23A U28G G29C U43A G44C | 0.01
15 | C23A G29U G33A | 0.54
16 | C23G G30C U38A | 0.37
17 | G22U G36C A41G | 0.64
18 | C23G A26C C42U | 1.54
19 | C23G A26C C42G | 0.02
20 | G22C G30A C31A | 0.1
21 | G22U G27A G29U | 0.21
22 | C23A G29A G30A A41U | 1.07
23 | C23A G29U G33U C42A | 0.09
24 | G22U U28A G30C | 0.94

Row | Variant | self-cleavage
25 | C23A G35U G44U | 0.35
26 | C23A G27U G29U A41G G44A | 0.04
27 | G22C G27U G35C | 0.1
28 | G22U C23A G30U | 0.96
29 | C23A G29A G35C C45U | 0.24
30 | G22U G29C G36U | 0.02
31 | G22U C31A A41U C42G | 0.02
32 | C23U G40C C46A | 0.01
33 | C23A U34C C42U | 0.04
34 | C23G C37A U43A | 0
35 | C23A U32G U38C C46U | 0.02
36 | C23U U28G G44A | 0.05
37 | C23G G30A U32C | 0.15
38 | C23A G27U G29C C45A | 0.28
39 | G22U A25G G27A C31A G44A | 0.07
40 | C23U G30A C31U | 0.12
41 | C23U G29A G40A | 0.09
42 | C23U G35A G36A U43G C45U | 0.23
43 | G22C G40U A41C G44U | 0.04
44 | C23G U28A A39G | 0.01
45 | G22U G33A G40U | 0.3
46 | C23A C31G A41C | 0.05
47 | G22U C23G C42U G44C | 0.14
48 | C23A G30A G36C G44C | 0.06

Row | Variant | self-cleavage
49 | C23U A24G G33U C45U | 0
50 | G22U A41C G44C | 0.28
51 | C23U C31U G44C | 0.04
52 | C23A U32G C45A | 0.06
53 | C23A A24U U28A U32A C45U | 0.09
54 | G22U G35C A39U | 0.09
55 | C23A G29U A39C C46G | 0.04
56 | G22U C23A G36A | 0.16
57 | C23G A26G C31A G33U G40A | 0
58 | C23U G29U C37U C42G | 0.01
59 | C23A C42A G44C | 0.11
60 | C23G G40A G44U C45G C46U | 0.01
61 | C23A G33C C37U | 0.11
62 | C23A A26G A39C C42A U43C C45U | 0.04
63 | G22C G27U U28C | 0.6
64 | C23A C45G C46U | 1.68
65 | C23U U28C U38G | 0.01
66 | C23A U32C A39C | 0.19
67 | C23G C37U U38C | 0.01
68 | C23G G29C G44U | 0.03
69 | C23A A25C C45U | 1.3
70 | C23G G35C G36C C45A C46U | 0.01
71 | C23G G35U G44C C46G | 0.01
72 | C23U A26G C31U G36U | 0.05

Row | Variant | self-cleavage
73 | C23G A24U U43A | 0.06
74 | G22U G35C G36C | 0.07
75 | G22U G35C G36U | 0.08
76 | G22U U28G C37A A39C | 0.02
77 | C23G C31G G36C A39G | 0
78 | C23G A25G U34G G40U | 0.03
79 | G22U G36A G40U C45U | 0.26
80 | C23U G27A C46G | 0.97
81 | G22U G29U C31A | 0.1
82 | C23G U28G A39U | 0.26
83 | G22U G27U G29A | 2.46
84 | G22U C23G G40A G44U | 0.08
85 | C23G U34G C45A | 0.07
86 | G22C G35U G36C | 0.07
87 | C23U A24G U32C G40A C46U | 0.02
88 | G22C G29A G44U | 0.14
89 | C23A U32A G35U G36A | 0.14
90 | C23G G27A C37A | 0.06
91 | C23G C42A C45U | 0.3
92 | C23G G27A C42A C46U | 0.03
93 | C23U A25U G29A | 0.83
94 | C23U C37U C42G C46G | 0
95 | C23G G35A C37G | 0
96 | C23U C31A G36C C46U | 0.07

Row | Variant | self-cleavage
97 | C23U G33C C37A | 0.03
98 | G22C U32G G35A C37A | 0.01
99 | C23G C31A G44U | 0.02
100 | G22U A24U A39C | 0.16
101 | C23G A25C G40A | 0.07
102 | C23U A25U C42U | 0.36
103 | C23G G40C A41G | 0.07
104 | C23G G36C C46A | 0.07
105 | C23A U38A G40A | 0.23
106 | C23U G30A C31G U43A | 0.18
107 | G22U G33U C46U | 0.06
108 | C23G U28C G35C C45A | 0.04
109 | G22U C31U G35U G40C C42A | 0.07
110 | C23U U28A C45A | 0.39
111 | C23U A26G U32C | 0.18
112 | C23A A26C G27A G35A C37A | 0.01
113 | C23A G29A G30C G36A | 0.23
114 | C23U G29C G35U | 0.09
115 | C23A A41C U43A | 0.06
116 | G22U A25C A26G G30A | 0.66
117 | C23A U32C U34G A39U | 0.03
118 | G22U C37A A39G C45U | 0.05
119 | C23U C31A G44A C46U | 0.04
120 | G22U G29C G44C | 0.07

Row | Variant | self-cleavage
121 | G22U G33U G36A C37A A41U | 0.11
122 | C23A U34C U38A | 0.21
123 | C23A A24G G27U U32G | 0.03
124 | G22U G27A G35A U38C A41G | 0.18
125 | C23G A24C G30A A41U C42G | 0.06
126 | C23A A25U U34A | 0.25
127 | G22U G33U G35A | 0.04
128 | C23A G30A G44U | 0.43
129 | C23U A25G U34A | 0.22
130 | C23G G30C G40C | 0.07
131 | G22C G33A C42U | 0.06
132 | C23G U32G A39C | 0.05
133 | C23U U28A U43C | 0
134 | C23G U32C G35A A41C C46U | 0.04
135 | C23G U38C C46G | 2.36
136 | C23A C31G G35A C45U | 0.05
137 | C23A U32A G33A | 0.34
138 | C23U G36U U38G | 0.01
139 | G22U A26C C46G | 1.81
140 | G22U U28G G35U | 0.06
141 | C23G G27C G33U | 0.34
142 | G22U C37A U43C | 0.09
143 | C23G G30C U32A G35C | 0
144 | C23U A25G C31G C46A | 0.07

Row | Variant | self-cleavage
145 | C23G G29C G30C C31A U32C | 0.1
146 | G22U G33A C37U | 0.17
147 | C23A A26U G35A G44U | 0.05
148 | C23A U28A U32A C37G G40A G44A | 0.06
149 | C23G G27U A39U | 0.16
150 | G22U A25C G29C G35U G40U | 0.03
151 | G22U C31A U43A | 0.06
152 | C23G C31U C45A | 0.03
153 | C23G C31A G40C A41U | 0.05
154 | G22C G30U C45U | 0.66
155 | C23A A24G G30U A41G | 0.09
156 | G22C U34G G40U | 0.08
157 | C23A G30A U43C | 0.05
158 | C23U G27A C37U | 0.02
159 | G22U C23G U28C U34G G35C C37A | 0.03
160 | G22C G30U G35C | 0.05
161 | C23U G30A U34C C37A U38G | 0.01
162 | G22U G30U U32C A41G | 0.09
163 | C23A C37U C45U | 0.04
164 | G22U C23A G27U | 0.61
165 | C23A A25G G35A | 0.01
166 | C23G C45A C46U | 0.41
167 | G22U U38A G40U | 0.09
